In ChEMBL document CHEMBL4888484, “Replenishing the malaria drug discovery pipeline: Screening and hit evaluation of the MMV Hit Generation Library 1 (HGL1) against asexual blood stage Plasmodium falciparum ,using a nano luciferase reporter read-out” (2022):
The whole screen tested about 150,000 compounds, of which about 540 (0.36%) showed an effect of 50% or more. Some of the results follow.

Tested on: Plasmodium falciparum
Assay: Primary screen in NF54 nanoGlo assay, in single point, at 2uM, 72h; a lower Z score goes with more inhibition
Type: functional, Erythrocyte
Conditions: timepoint 72 hour

SMILES | % Inhibition [%] | Z score | % Inhibition (2 µM) [%]
Cc1nc(-c2c(C)noc2C)sc1C(=O)N(CC(C)C)C(C)C | 3 | -0.46 | –
Cc1cc2sc(N)nc2cc1-c1cccc(C(=O)N2CC=C[C@@H]2C(C)C)c1 | -29 | 2.6 | –
COCc1nc(C)c(CNC(=O)c2cnccn2)s1 | -4 | 0.7 | –
CCCNCc1cc(Br)ccc1OCC(N)=O | – | – | -6
Cc1ccc(NC(=O)C2CC2c2ccccc2)cc1NC(=O)C1CC1c1ccccc1 (stereo not drawn) | 32 | -4.17 | –
c1cc(N2CCNCC2)ccc1-c1noc(C2CCC2)n1 | -12 | 1.53 | –
O=C(COc1ncccn1)N1CCCCC1 | -32 | 2.81 | –
COC(OC)C(NC(=O)COCC1CCCO1)c1ccccc1 (stereo not drawn) | -17 | 2.47 | –
CC(C)c1cc(NC[C@@H](C(=O)O)c2ccccc2)ncn1 | -5 | 0.96 | –
CC(C)c1ccc(S(=O)(=O)Nc2cc(C(=O)NCc3cccnc3)ccc2N2CCNCC2)cc1 | 5 | -0.46 | –
CC(=O)c1cnc(NC(=O)CC2CCCCC2)s1 | 16 | -2.06 | –
Cc1ccc(C(=O)N2CCO[C@H](c3cccnc3)C2)s1 | -1 | 0.19 | –
Cc1ccc2c(c1)OC1(C)CC2NC(=O)N1Cc1ccc(S(N)(=O)=O)cc1 (stereo not drawn) | -6 | 0.97 | –
COc1ccc(Cl)cc1NC(=O)Cc1c(C)nc2nc(-c3ccc(C)cc3)nn2c1C | -8 | 1.17 | –
CN(C)C(N)=NC1CC1c1ccccc1 (stereo not drawn) | 5 | -0.55 | –
CC(=O)NC(C)(C)C[C@H](C)NC1(c2ccccc2C)CC1 | -7 | 0.75 | –
C[C@H]1CN(C(=O)NCc2ccon2)CCCO1 | -18 | 2.06 | –
Cc1cc(CN2CCCC[C@H]2c2noc(C)n2)ccn1 | 15 | -1.89 | –
CCN(CC(=O)O)C(=O)C(C)=Cc1ccc(F)cc1 | -6 | 0.75 | –
COc1ccc(Cl)cc1-c1ccc(N(C)C)nn1 | -5 | 0.67 | –
CN(C)C(=O)CN1C(=O)COc2ccc(C(=O)N3CCN(c4ccc(F)cc4)CC3)cc21 | -3 | 0.4 | –
Cc1cc(C)n(C(=O)CCc2c[nH]c3ccccc23)n1 | -13 | 1.51 | –

SMILES | % Inhibition [%] | Z score | % Inhibition (2 µM) [%]
C[C@H](NC(=O)c1ccc(S(C)(=O)=O)cc1)C(C)(C)C | -21 | 1.89 | –
CN1C[C@@H](NC(=O)c2ccccc2NCc2cccnc2)CC1=O | -13 | 1.12 | –
CC1CCN(CCCCNC(=O)c2cc(S(=O)(=O)N(C)C)ccc2N2CCCCC2)CC1 | 3 | -0.25 | –
CCOC(=O)c1ccc(C(=O)N2CCN(Cc3ccccc3)CC2)nc1C | -12 | 1.33 | –
COC(=O)N1CCCC[C@H]1C(=O)N1CCc2[nH]c(-c3cccnc3)nc2C1 | -1 | 0.14 | –
CCOC(=O)N1CCC2(CC1)N=C(c1ccc3c(c1)OCO3)C[C@@H](c1cccc(OCC)c1O)N2 | -8 | 1.17 | –
COc1cc(OC)c(NCc2noc(-c3ccccc3)n2)cc1Cl | -15 | 1.48 | –
OC(CNC(c1cc(F)ccc1F)C1CC1)C(F)(F)F (stereo not drawn) | -9 | 0.94 | –
Cc1ncnc(N[C@@H](C)c2ccc(S(C)(=O)=O)cc2)c1C | -3 | 0.6 | –
CN1CC[C@H](Nc2cccc(CN(C)C(=O)C(F)(F)F)c2)C1=O | 4 | -0.64 | –
COC(=O)C1CCCC1C(=O)NCc1ncc[nH]1 (stereo not drawn) | -2 | 0.28 | –
Cc1cc(C(=O)N2CCN3C(=O)CNC(=O)[C@@H]3C2)sc1-c1ccccc1 | 2 | -0.21 | –
CCOCCN1CCN(C(=O)c2sc(C)nc2C)C[C@@H]1C | -7 | 0.89 | –
Cc1n[nH]c([C@H]2CCN(Cc3ccccc3C)C[C@H]2N(C)C)n1 | -2 | 0.22 | –
Fc1ccc(Cl)c(Cn2nnnc2C2CCOCC2)c1 | -9 | 0.96 | –
COc1cccc(C(=O)N[C@@]2(C(F)(F)F)Nc3nc4ccccc4n3C2=O)c1 | -2 | 0.2 | –
Cc1csc(NC(=O)c2ccc(NC(=O)CCS(=O)(=O)c3cccs3)cc2)n1 | -14 | 1.55 | –
Cc1cccc(CNC(=O)c2cc(Cc3ccccc3)n[nH]2)n1 | 6 | -1.1 | –
Cc1cccc(N2CCC(NC(=O)CCCn3nnnc3CN3CCOCC3)CC2)c1 | -8 | 1.05 | –
Cc1cc([C@H]2C[C@H]3CC[C@@H](C2)N3C(=O)Cc2c[nH]c(=O)[nH]c2=O)ccc1F | -7 | 1 | –
O=C(NCc1ccncc1)NC1CCCCCCC1 | 14 | -1.9 | –
O=c1c2ccccc2nc2c(-c3nc(-c4cccc(C(F)(F)F)c4)no3)cccn12 | -7 | 0.66 | –

SMILES | % Inhibition [%] | Z score | % Inhibition (2 µM) [%]
Cc1cnc(NC(=O)c2oc(C)nc2C)c(Br)c1 | 7 | -0.93 | –
CCCCNc1ccc(C(=O)NCC(C)C)c(Cl)c1 | -6 | 0.95 | –
Cc1n[nH]c(C)c1CN(C)Cc1cc(C(C)C)on1 | -7 | 1.31 | –
CN(C)c1ccc(NC(=O)CCOc2ccccc2)cn1 | 16 | -1.81 | –
C[C@@H]1CN(Cc2nnc(C3CC3)n2C)C[C@H](C)N1Cc1nnc(C2CC2)n1C | 3 | -0.47 | –
CC(=O)N1CCO[C@@H](CC(c2ccccc2)c2ccccc2)C1 | -13 | 1.75 | –
Cc1ccc(CC(=O)N[C@@H]2C[C@H]2c2ccc(Cl)c(F)c2)cn1 | -4 | 0.53 | –
CC(C)c1ncsc1C(=O)N1CCc2ncccc2C1 | -5 | 0.61 | –
CC(C)Cc1cc(C(=O)N(Cc2ccsc2)C2CCCC2)on1 | -7 | 1.06 | –
COCCN1CC2(CCC1=O)CCN(C(=O)Cc1ccc(F)cc1)CC2 | 10 | -1.55 | –
CS(=O)(=O)n1cnc2cc(F)c(F)cc21 | 38 | -4.91 | –
CCCCCNC(=O)Nc1cc(S(C)(=O)=O)ccc1Cl | -3 | 0.43 | –
CC1(C)C[C@@H]1NC(=O)NCc1cnc(C2CC2)o1 | 15 | -1.69 | –
Cc1ncccc1OCCOC(C)(C)C | -11 | 1.75 | –
O=S(=O)(CCC(F)(F)F)N1CCn2nc3c(c2C1)CCC3 | 16 | -1.97 | –
COc1cccc(CNC(=O)NC[C@H](c2ccc(F)cc2)c2c[nH]c3ccccc23)c1 | -7 | 1.28 | –
Cn1c(-c2cccc(C(=O)Nc3ccc(N4CCOCC4)cc3)c2)nc2cccnc21 | -5 | 0.63 | –
NC(=O)c1ccc(CN2CCC3CCCCC3C2)cc1 (stereo not drawn) | -8 | 1.38 | –
N#Cc1c(N)c(C#N)c(-c2ccc3c(c2)OCO3)c2c1CCCC2 | 0 | 0.02 | –
COc1ccc(CCNc2ccc(NC(=O)CCCNC(=O)OC(C)(C)C)cn2)cc1 | -2 | 0.31 | –
COc1cc2c(cc1CN1C[C@H](O)[C@@H](F)C1)OCO2 | -10 | 1.29 | –
Cc1ccc(S(=O)(=O)NC(=O)C2CCC3CC3C2)s1 (stereo not drawn) | 1 | -0.06 | –

SMILES | % Inhibition [%] | Z score | % Inhibition (2 µM) [%]
CCN(CC)CCOc1cc(C)cc(C)c1 | -4 | 0.67 | –
CCOc1cc(C(=O)N[C@H]2CCc3c(nc(C)n3CCO)C2)n[nH]1 | -6 | 1.17 | –
c1ccc2c(Oc3ccc(CN4CCOCC4)c4cccnc34)nccc2c1 | -9 | 1.73 | –
CCn1cc(S(=O)(=O)N2CCC[C@H]2c2nncn2Cc2ccncc2)cn1 | 0 | -0.02 | –
CC(=O)N1CCc2cc(S(=O)(=O)N3CCC(CC(=O)NC4CCCCC4)CC3)ccc21 | -10 | 0.95 | –
CN(C)Cc1ccnc(NC(=O)N2C[C@@H]3CCC[C@]3(C(N)=O)C2)c1 | -6 | 0.92 | –
Cc1cc(S(=O)(=O)NC[C@H]2CCCO2)ccc1N1CCCC1=O | -25 | 2.32 | –
CN(CCc1nccc(O)n1)S(=O)(=O)Cc1ccccc1 | -7 | 0.9 | –
Cn1nccc1C1(O)CN(S(=O)(=O)C2Cc3ccccc3C2)C1 | -11 | 1.76 | –
Cc1cc(CN(C)C(=O)c2ccc(NC(=O)c3ccoc3C)cc2)n[nH]1 | -2 | 0.38 | –
COc1c(Br)cc(Br)cc1CNCCNC(=O)C(C)C | 0 | -0.04 | –
CN1Cc2ccc(CN(C)C(=O)CCc3c[nH]c4ccccc34)cc2C1 | -10 | 0.87 | –
O=C(O)c1ccc2nc(-c3cccn3-c3ncccn3)[nH]c2c1 | -16 | 2.33 | –
Clc1ccc(C[n+]2ccc(-c3nc4ccccc4o3)cc2)c(Cl)c1 | 79 | -11.4 | –
CN(C)CCn1ccc(NC(=O)N2CCC[C@H](c3ccn(C)n3)C2)n1 | 11 | -1.25 | –
O=C(c1ccc(F)c(F)c1F)N1CCC(n2ccnn2)CC1 | 34 | -3.84 | –
Cn1cc(NC(=O)C2(O)CCCC2)nn1 | -2 | 0.35 | –
CCCCCS(=O)(=O)N(C)C1CCC1 | 13 | -1.45 | –
CC(C)Cn1cccc(C(=O)Nc2cn(C)nc2-c2ccco2)c1=O | -9 | 1.12 | –
O=C(c1ccc(F)cc1)N1CCC2(CC1)C[C@@H](N1CCOCC1)CCO2 | -3 | 0.57 | –
O=C(O)[C@@]12CN(Cc3cccc(F)c3)C[C@@H]1CN(Cc1cccs1)C2 | -17 | 2.25 | –
